Experimental data reported in PubChem BioAssay AID686971 (National Center for Advancing Translational Sciences (NCATS), 2013).
In all, about 360,000 compounds went through this assay and about 7,500 (2.1%) were called active. This list was built around the results that the source calls inconclusive (neither active nor inactive); the mix of calls is not that of the screen. The call rests on the fitted dose curve; in most records, active means well fitted cell-killing curve with a large enough effect; inconclusive means small, poorly fitted or top-dose-only effect, or effect the other way, or another doubt; inactive means no such curve, though single readings can be large or run the other way. Potencies of inconclusive entries are left out as doubtful fits.

Test: qHTS for induction of synthetic lethality in tumor cells producing 2HG: qHTS for the HT-1080-IDH1KD cell line;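 on activity, negative = toxicity: 0% = DMSO wells and -100% = cell-free medium wells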
Settings: HT-1080 IDH1 knockdown viability, ATP luminescence, 48 h; activity, negative = toxicity: at 46.1 µM (top of the series) unless noted
In short: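 % activity derives from luminescence (CellTiter-Glo), normalised to DMSO and no-cell wells. HT-1080-IDH1KD cells, 750/well, had 48 h compound exposure at 37 °C.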
Potency means the concentration at half of the fitted maximal effect; tags describe the fitted curve by direction and shape.

Row | Structure (SMILES) | Potency | activity, negative = toxicity
1 | O=C(Nc1ccccn1)c1cc2ccccc2cc1O | inconclusive [cytotoxic, single point] | 
2 | Oc1ccc(C2=NNC(=NCc3ccc4c(c3)OCO4)SC2)c(O)c1 | inconclusive [cytotoxic, partial curve] | 
3 | CN(C)c1ccc(CNc2nc3cc(-c4ccc(F)cc4)sc3c(=O)n2C)cc1 | inconclusive [cytotoxic, partial curve] | 
4 | COc1ccccc1CN1C(=O)CN(C2CCCCCC2)C(=O)C1c1ccc(F)cc1 (centres undefined) | inconclusive [cytotoxic, single point] | 
5 | CCCN(CCC)C(=S)NC(=O)c1ccc(-c2ccccc2)cc1 | inconclusive [cytotoxic, partial curve] | 
6 | CCCNC(=O)c1cc(C2CCCN(C(=O)C3CC3)C2)on1 (centres undefined) | inconclusive [rising, single point] | 
7 | OC(CN1CC=C(/C=C/c2ccc(Br)cc2)CC1)c1ccccc1 (centres undefined) | inconclusive [cytotoxic, single point] | 
8 | OC(Cc1cccc(Br)c1)c1ncc(-c2cccc(C(F)(F)F)c2)[nH]1 (centres undefined) | inconclusive [cytotoxic, single point] | 
9 | CCCCn1cnc2c(SCc3ccc(Cl)cc3)nc(N)nc21 | inconclusive [cytotoxic, single point] | 
10 | O=C(NNc1cc(C(F)(F)F)nc2ccccc12)Nc1cccc(Cl)c1 | active: 20.6 µM | 
11 | COc1ccc(CCN2C(=S)N(C)C(=O)C2CC(=O)Nc2ccc(OC)cc2)cc1 (centres undefined) | inconclusive [cytotoxic, single point] | 
12 | CCCCCc1c(CC)ncn1CCc1ccccc1OC | inconclusive [cytotoxic, single point] | 
13 | COc1cc(C(=O)N/N=C/c2ccsc2C)cc(OC)c1OC | active: 0.58 µM | 
14 | COc1ccccc1N(CC1CO1)S(=O)(=O)c1ccccc1 (centres undefined) |  | inactive: -16.2%
15 | COC(=O)c1ccc(NC(=O)c2ccc(N(C)S(C)(=O)=O)cc2)cc1 | inconclusive [cytotoxic, single point] | 
16 | CCc1ccc2[nH]c(=O)c(CN(CCN3CCCC3)C(=O)NC3CCCCC3)cc2c1 | inconclusive [cytotoxic, single point] | 
17 | CCc1nnc(N/N=C/c2ccccc2Cl)n1N | active: 15.8 µM | 
18 | Cc1ccc(CN2CCNC(=O)C2CC(=O)NCC(F)(F)F)o1 (centres undefined) |  | inactive: 1.36%
19 | Cc1cccc(C(=O)N2CCC(=O)N(C(COCc3cccc(Cl)c3)Cc3ccccc3)CC2)c1 (centres undefined) |  | inactive: -16.1%
20 | Cc1cc(C)c2nc(N3CCCC(C(=O)N4CCN(c5ncccn5)CC4)C3)sc2c1 (centres undefined) |  | inactive: 4.2%
21 | CCOC(=O)c1sc2nc(CC(=O)OC)nc(N3CCN(c4ccc(OC)cc4)CC3)c2c1C | inconclusive [cytotoxic, single point] | 
22 | Cc1nc2cc(NCc3nc4ccccc4n3Cc3ccccc3)ccc2n1C | inconclusive [cytotoxic, single point] | 

Row | Structure (SMILES) | Potency | activity, negative = toxicity
23 | C=CCSc1nnc(NC(=O)c2c(CC)noc2C)s1 |  | inactive: 1.96%
24 | CCOc1ccc(C(=O)NC2C(=O)N3C(C(=O)O)=C(COC(C)=O)CSC23)cc1OCC (centres undefined) |  | inactive: -5.68%
25 | CCc1ccc2ncc(S(=O)(=O)c3ccc(C)c(C)c3)c(N3CCCC3)c2c1 | inconclusive [cytotoxic, partial curve] | 
26 | O=C(COc1ccc(CNC[C@H]2O[C@@H](n3ccc(=O)[nH]c3=O)[C@H](O)[C@@H]2O)cc1)Nc1nccs1 | inconclusive [rising, partial curve] | 
27 | Cc1nsc2nc3c(F)c(F)c(F)c(F)c3cc12 | inconclusive [cytotoxic, partial curve] | 
28 | O=[N+]([O-])CC(c1ccccc1)c1c[nH]c2ccccc12 (centres undefined) | active: 14.6 µM | 
29 | COc1cccc(-c2csc(N3CCN(C(=O)NC45CC6CC(CC(C6)C4)C5)CC3)n2)c1 | inconclusive [cytotoxic, single point] | 
30 | Cc1ccc(C)c(NC(=O)CN(C)C(=O)c2ccc3[nH]c4c(c3c2)CC(C)CC4)c1 (centres undefined) | inconclusive [cytotoxic, single point] | 
31 | COc1ccc(/C(C)=N/OCC(=O)N2CC3(C)CC2CC(C)(C)C3)cc1 (centres undefined) |  | inactive: -7.62%
32 | O=C(CCCSc1nnnn1-c1cccc2ccccc12)c1ccc(F)cc1 | inconclusive [cytotoxic, single point] | 
33 | COc1ccc(C2OC(CCc3ccccc3)Cc3[nH]c(=S)[nH]c(=O)c32)cc1 (centres undefined) | inconclusive [cytotoxic, single point] | 
34 | O=C(N/N=C\c1cc2c(cc1Cl)OCO2)c1cccs1 |  | inactive: -0.749%
35 | O=C(Cn1cc(C(F)(F)F)ccc1=O)N/N=C/c1ccc(Cl)cc1Cl | inconclusive [cytotoxic, partial curve, poor fit] | 
36 | Cc1ccccc1NCc1ccc(O)c2ncccc12 | active: 0.708 µM | 
37 | C=CCOC(=O)C1=C(C)NC(SCC(=O)Nc2ccc(C)c(Cl)c2)=C(C#N)C1c1ccco1 (centres undefined) | active: 16.4 µM | 
38 | COc1cc(OC)c(C=CC(=O)c2ccccc2O)c(OC)c1 | inconclusive [cytotoxic, single point] | 
39 | O=C(CSc1nc(-c2ccccc2)c(-c2ccccc2)o1)NC1CCS(=O)(=O)C1 (centres undefined) | inconclusive [cytotoxic, single point] | 
40 | CC(C)N(C)c1ncnc2c1ncn2[C@H]1CN(Cc2cccs2)C[C@@H](CO)O1 |  | inactive: 15.2%
41 | COc1ccc(OC)c(CN2CCN(Cc3cccc4ccccc34)CC2)c1 | inconclusive [cytotoxic, single point] | 
42 | Cc1ccc(NC(=O)COC(=O)C2CCC(=O)N2)c([N+](=O)[O-])c1 (centres undefined) |  | inactive: -2.2%
43 | COc1ccc(N(C(=O)c2snc(C(N)=O)c2N)C(C(=O)NC2CCCC2)c2ccco2)c(OC)c1 (centres undefined) | inconclusive [cytotoxic, partial curve] | 
44 | CC(C)(C)C1=CC(=Nc2ccccc2N)C=C(C(C)(C)C)C1=O | inconclusive [cytotoxic, single point] | 
